# Measurements published in the supplement of paper PMC4604168 (melanoma cell lines).
# Some of the results follow. Single values are uncertain, as repeats are few or missing.
# Key:
# Experiment in all cases: cell count relative to DMSO control; melanoma cells; higher = more viable cells
# Conditions in all cases: library dose: standard library concentration; 72 h
# G361 = tested on: G361
# IPC-298 = tested on: IPC-298
# IST-MEL1 = tested on: IST-MEL1
# LB2518-MEL = tested on: LB2518-MEL
# LOXIMVI = tested on: LOXIMVI
# MEL-HO = tested on: MEL-HO
# MZ2-MEL = tested on: MZ2-MEL
# MeWo = tested on: MeWo
# RPMI7951 = tested on: RPMI7951
# RVH-421 = tested on: RVH-421
# SkMel28 = tested on: SkMel28
# SkMel2 = tested on: SkMel2
# SkMel30 = tested on: SkMel30
# SkMel5 = tested on: SkMel5
# UACC257 = tested on: UACC257
# UACC62 = tested on: UACC62
# WM115 = tested on: WM115
# WM1716 = tested on: WM1716
# WM1745 = tested on: WM1745
# WM3526 = tested on: WM3526
# 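Further: cells treated in 1,536-well plates, then fixed and DAPI-stained, with nuclei counted from automated high-throughput microscope images.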
SMILES,cell count (G361),cell count (IPC-298),cell count (IST-MEL1),cell count (LB2518-MEL),cell count (LOXIMVI),cell count (MEL-HO),cell count (MZ2-MEL),cell count (MeWo),cell count (RPMI7951),cell count (RVH-421),cell count (SkMel28),cell count (SkMel2),cell count (SkMel30),cell count (SkMel5),cell count (UACC257),cell count (UACC62),cell count (WM115),cell count (WM1716),cell count (WM1745),cell count (WM3526)
"O=C(CCCCCCC(=O)Nc1ccccc1)NO [vorinostat] + CC(C)(C)c1cnc(CSc2cnc(NC(=O)C3CCNCC3)s2)o1 [SNS-032] (first compound 0.4 µM, partner dose 0.05 µM)",71.9%,105%,99.6%,75.6%,63.6%,88.7%,112%,79%,39.2%,104%,40.9%,75.4%,83.3%,63.1%,64.9%,63.5%,79.5%,90.8%,119%,72.9%
"O=C(CCCCCCC(=O)Nc1ccccc1)NO [vorinostat] + Cn1cncc1[C@@](N)(c1ccc(Cl)cc1)c1ccc2c(c1)c(-c1cccc(Cl)c1)cc(=O)n2C [tipifarnib] (first compound 0.4 µM, partner dose 0.05 µM)",81.4%,79.6%,89.9%,59.2%,46.4%,84.7%,100%,73.4%,54.6%,80.4%,39.2%,62.7%,79.4%,67%,59.9%,68.6%,57.5%,61.3%,76.9%,75.6%
"Nc1cccc2c1CN(C1CCC(=O)NC1=O)C2=O (stereo not given) [lenalidomide] + O=C(O)C(=O)Nc1sc2c(c1C(=O)O)CCNC2 [TCS401] (first compound 5 µM, partner dose 8.33333 µM)",87.4%,97.5%,109%,117%,137%,109%,138%,96.6%,105%,104%,105%,91.1%,106%,100%,81.1%,106%,89.7%,93.1%,74.5%,81.6%
"Clc1ccc(Nc2nnc(Cc3ccncc3)c3ccccc23)cc1 [vatalanib] + CN(C)S(=O)(=O)c1ccc2c(c1)/C(=C/c1cc3c([nH]1)CCCC3)C(=O)N2 [SU6656] (first compound 10 µM, partner dose 2 µM)",45.5%,54.4%,63.7%,73.2%,63.5%,57.9%,78.6%,59.8%,46.1%,80.2%,43.8%,70%,84.2%,32.9%,55.8%,45.9%,45%,49.2%,17.7%,51%
"C#Cc1cccc(Nc2ncnc3cc(OCCOC)c(OCCOC)cc23)c1 [erlotinib] + O=c1cc(-c2cccc3c2Sc2ccccc2S3)oc(N2CCOCC2)c1 [KU55933] (first compound 4 µM, partner dose 5 µM)",61.4%,71.1%,96.5%,64.9%,78.4%,77.4%,68.5%,68.7%,65.3%,79%,50.9%,88.7%,64.5%,59.3%,101%,84.6%,68.5%,79.7%,60.4%,66.4%
"OCc1c[nH]c2ccccc12 [Indole-3-carbinol] + Cc1nc(Nc2ncc(C(=O)Nc3c(C)cccc3Cl)s2)cc(N2CCN(CCO)CC2)n1 [dasatanib] (first compound 4 µM, partner dose 0.02 µM)",75.9%,69.2%,70.9%,86.5%,11.6%,71%,45.1%,71.5%,35.6%,52.9%,91.1%,74.3%,96.4%,61.1%,75.5%,74.3%,73.2%,71%,30.7%,94.1%
"Clc1ccc(Nc2nnc(Cc3ccncc3)c3ccccc23)cc1 [vatalanib] + C[C@@H]1CCN(C(=O)CC#N)C[C@@H]1N(C)c1ncnc2[nH]ccc12 [CP690550] (first compound 10 µM, partner dose 5 µM)",71.7%,75.2%,74.3%,84.3%,64.9%,65.6%,79.7%,67.3%,65.5%,87.9%,57.7%,61.1%,85.4%,54.1%,71%,78.7%,82%,82.1%,54.7%,75.7%
"Clc1ccc(Nc2nnc(Cc3ccncc3)c3ccccc23)cc1 [vatalanib] + Cn1nnc2c(C(N)=O)ncn2c1=O [temozolomide] (first compound 10 µM, partner dose 10 µM)",99.9%,76.1%,65.6%,104%,58.4%,63.2%,73.6%,77.3%,66.7%,82.2%,39.2%,93.3%,58.6%,78.9%,74.9%,44.4%,77.6%,55.6%,58.2%,96.7%
"Cn1c(Nc2ccc(C(F)(F)F)cc2)nc2cc(Oc3ccnc(-c4ncc(C(F)(F)F)[nH]4)c3)ccc21 + Cn1nnc2c(C(N)=O)ncn2c1=O [temozolomide] (first compound 0.4 µM, partner dose 10 µM)",25.5%,46.7%,80.8%,40.3%,77.7%,60.9%,73.1%,70%,53.9%,50.6%,18.1%,48.4%,51%,34.4%,75.8%,40.3%,49%,51.4%,68.6%,41.5%
"Nc1cccc2c1CN(C1CCC(=O)NC1=O)C2=O (stereo not given) [lenalidomide] + O=C(CCCCCCC(=O)Nc1ccccc1)NO [vorinostat] (first compound 5 µM, partner dose 0.4 µM)",71%,107%,111%,70.2%,71%,86.2%,117%,73.5%,59.4%,103%,35.8%,77.9%,92.9%,60.4%,61.7%,66.5%,59.6%,76.4%,86%,64.9%
"O=C(CCCCCCC(=O)Nc1ccccc1)NO [vorinostat] + CCN(CC)CCCCNc1ncc2cc(-c3cc(OC)cc(OC)c3)c(NC(=O)NC(C)(C)C)nc2n1 [PD173074] (first compound 0.4 µM, partner dose 0.5 µM)",73.5%,72.4%,96.2%,74.3%,71.5%,84.2%,87%,64.5%,76.4%,106%,65.2%,86.3%,82.8%,82.1%,70.6%,87.7%,72.4%,92.5%,79.5%,69.3%
"C#Cc1cccc(Nc2ncnc3cc(OCCOC)c(OCCOC)cc23)c1 [erlotinib] + CC1(C)NC(=O)N(c2ccc([N+](=O)[O-])c(C(F)(F)F)c2)C1=O [nilutamide] (first compound 4 µM, partner dose 5 µM)",74.1%,77.8%,80.3%,59.3%,73.3%,84.7%,84.8%,69.3%,66.9%,87.4%,57.4%,96.1%,87.8%,64.4%,84.8%,62.6%,62.1%,92%,49.3%,75.5%
"OCc1c[nH]c2ccccc12 [Indole-3-carbinol] + CN(NC(=O)CC(=O)NN(C)C(=S)c1ccccc1)C(=S)c1ccccc1 [STA4783] (first compound 4 µM, partner dose 0.03 µM)",46.2%,89.7%,14.1%,14.3%,69.3%,86.3%,107%,21.2%,59%,73.6%,17.3%,65.2%,73.4%,62.7%,96.6%,57.8%,11.2%,95.1%,18.6%,104%
"Cn1c(Nc2ccc(C(F)(F)F)cc2)nc2cc(Oc3ccnc(-c4ncc(C(F)(F)F)[nH]4)c3)ccc21 + CCc1ccc(CCOc2ccc(CC3SC(=O)NC3=O)cc2)nc1 [pioglitazone] (first compound 0.4 µM, partner dose 10 µM)",31.4%,45.2%,81%,32.9%,80.8%,68.6%,66.8%,69.2%,50.2%,30.3%,27.4%,58.5%,68%,42%,80%,53%,37.7%,76.6%,57.5%,42.3%
"COCC[n+]1c2c(n(Cc3cnccn3)c1C)C(=O)c1ccccc1C2=O + CCCCCCCCCCCC1=C(O)C(=O)C=C(O)C1=O [Embelin] (first compound 0.002 µM, partner dose 6 µM)",45.3%,45.7%,50.6%,36.3%,74.2%,66.6%,33.9%,86.6%,42.4%,78.8%,59.9%,29.7%,77.4%,74.9%,17.6%,99.3%,67.5%,70.5%,67.5%,51.9%
"Clc1ccc(Nc2nnc(Cc3ccncc3)c3ccccc23)cc1 [vatalanib] + O=C(CCCCCCC(=O)Nc1ccccc1)NO [vorinostat] (first compound 10 µM, partner dose 0.4 µM)",59%,69.6%,67.5%,64.6%,70.4%,64.8%,67.6%,53.4%,44%,76.3%,44.7%,48.1%,73.5%,53.2%,76.8%,67.7%,81.1%,78%,26.4%,52.5%
"C#Cc1cccc(Nc2ncnc3cc(OCCOC)c(OCCOC)cc23)c1 [erlotinib] + CC(C)CCN1c2nc(Nc3cc(F)c(O)c(F)c3)ncc2N(C)C(=O)C1C [BID1870] (first compound 4 µM, partner dose 1 µM)",44.9%,70.8%,92.5%,68.5%,237%,57.3%,82.2%,55.6%,72.6%,97%,53.1%,68.7%,74%,59.9%,82.3%,55.5%,75%,59.9%,45.1%,61.3%
